Source: paper PMC10641524
These are yes or no findings as the source states them, for the method shown. Binding seen in cells or lysates may run through a third protein. Some binding calls cover weakened binding; strength is not graded here. For some assays here: Sequences can lack the tags named with a protein.

Amino acid sequences for entries named in this document (tags omitted).
UniProt Q9NP72: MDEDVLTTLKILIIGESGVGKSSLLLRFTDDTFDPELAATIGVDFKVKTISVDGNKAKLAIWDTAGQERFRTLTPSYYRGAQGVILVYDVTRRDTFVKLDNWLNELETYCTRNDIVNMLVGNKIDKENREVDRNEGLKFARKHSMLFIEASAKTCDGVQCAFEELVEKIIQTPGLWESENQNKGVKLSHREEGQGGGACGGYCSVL
UniProt P32019: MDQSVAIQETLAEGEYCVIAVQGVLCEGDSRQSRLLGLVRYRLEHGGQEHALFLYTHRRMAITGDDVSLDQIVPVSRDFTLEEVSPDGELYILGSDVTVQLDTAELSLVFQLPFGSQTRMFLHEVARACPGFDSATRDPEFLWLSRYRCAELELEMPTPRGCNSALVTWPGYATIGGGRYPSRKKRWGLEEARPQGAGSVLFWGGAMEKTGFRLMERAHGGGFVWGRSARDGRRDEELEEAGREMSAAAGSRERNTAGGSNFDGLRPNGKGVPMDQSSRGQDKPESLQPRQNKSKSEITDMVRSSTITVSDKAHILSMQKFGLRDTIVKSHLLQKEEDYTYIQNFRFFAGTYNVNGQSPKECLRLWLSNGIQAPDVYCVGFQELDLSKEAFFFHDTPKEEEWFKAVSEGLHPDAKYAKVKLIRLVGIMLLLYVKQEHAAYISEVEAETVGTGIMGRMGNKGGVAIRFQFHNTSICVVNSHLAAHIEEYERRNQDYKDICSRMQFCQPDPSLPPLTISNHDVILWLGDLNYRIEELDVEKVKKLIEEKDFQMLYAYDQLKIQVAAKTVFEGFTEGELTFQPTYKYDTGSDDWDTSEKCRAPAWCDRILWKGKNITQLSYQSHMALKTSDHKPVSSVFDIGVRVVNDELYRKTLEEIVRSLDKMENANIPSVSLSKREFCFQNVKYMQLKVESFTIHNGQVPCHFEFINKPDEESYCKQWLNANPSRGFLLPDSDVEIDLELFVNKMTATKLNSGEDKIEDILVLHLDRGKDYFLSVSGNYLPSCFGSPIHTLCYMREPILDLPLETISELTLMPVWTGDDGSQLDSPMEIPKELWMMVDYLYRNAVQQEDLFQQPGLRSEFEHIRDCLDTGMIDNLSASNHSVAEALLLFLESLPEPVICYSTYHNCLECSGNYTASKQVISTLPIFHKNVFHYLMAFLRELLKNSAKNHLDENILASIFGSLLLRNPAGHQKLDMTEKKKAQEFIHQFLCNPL

How the values were obtained:
HA-RAB18 [1] = biological target: HA-RAB18 (UniProt Q9NP72); experiment: co-IP; anti-HA immunoprecipitation (protein G Dynabeads) from lysates of transfected WT HeLa cells (for TMCO4-EGFP also TRAPPC9-null cells), 24 h post-transfection; 150 mM NaCl, 0.5% Triton X-100, 10 mM Tris pH 7.4; immunoblot for HA and GFP or mCherry
HA-RAB18 [2] = biological target: HA-RAB18 (UniProt Q9NP72); experiment: co-IP; anti-HA immunoprecipitation (protein G Dynabeads) from lysates of transfected RAB3GAP1-null HeLa cells; 150 mM NaCl, 0.5% Triton X-100, 10 mM Tris pH 7.4; immunoblot for HA and GFP
HA-RAB18 [3] = biological target: HA-RAB18 (UniProt Q9NP72); experiment: co-IP; anti-HA immunoprecipitation (protein G Dynabeads) from lysates of transfected WT HeLa cells (for TMCO4-EGFP also TRAPPC9-null cells), 24 h post-transfection; 150 mM NaCl, 0.5% Triton X-100, 10 mM Tris pH 7.4; immunoblot for HA and GFP or mCherry; remark: listed apart in the source

Row | Molecule | binding (HA-RAB18 [1]) | binding (HA-RAB18 [2]) | binding (HA-RAB18 [3])
1 | mCherry-INPP5B (from UniProt P32019 1-993) | binds |  | 
2 | mEmerald-SEC22A (protein, UniProt Q96IW7 1-307) MSMILSASVIRVRDGLPLSASTDYEQSTGMQECRKYFKMLSRKLAQLPDRCTLKTGHYNINFISSLGVSYMMLCTENYPNVLAFSFLDELQKEFITTYNMMKTNTAVRPYCFIEFDNFIQRTKQRYNNPRSLSTKINLSDMQTEIKLRPPYQISMCELGSANGVTSAFSVDCKGAGKISSAHQRLEPATLSGIVGFILSLLCGALNLIRGFHAIESLLQSDGDDFNYIIAFFLGTAACLYQCYLLVYYTGWRNVKSFLTFGLICLCNMYLYELRNLWQLFFHVTVGAFVTLQIWLRQAQGKAPDYDV |  | no binding (condition: in RAB3GAP1-null cells) | binds
3 | TMCO4-EGFP (protein, UniProt Q5TGY1 1-634) MAMWNRPCQRLPQQPLVAEPTAEGEPHLPTGRELTEANRFAYAALCGISLSQLFPEPEHSSFCTEFMAGLVQWLELSEAVLPTMTAFASGLGGEGADVFVQILLKDPILKDDPTVITQDLLSFSLKDGHYDARARVLVCHMTSLLQVPLEELDVLEEMFLESLKEIKEEESEMAEASRKKKENRRKWKRYLLIGLATVGGGTVIGVTGGLAAPLVAAGAATIIGSAGAAALGSAAGIAIMTSLFGAAGAGLTGYKMKKRVGAIEEFTFLPLTEGRQLHITIAVTGWLASGKYRTFSAPWAALAHSREQYCLAWEAKYLMELGNALETILSGLANMVAQEALKYTVLSGIVAALTWPASLLSVANVIDNPWGVCLHRSAEVGKHLAHILLSRQQGRRPVTLIGFSLGARVIYFCLQEMAQEKDCQGIIEDVILLGAPVEGEAKHWEPFRKVVSGRIINGYCRGDWLLSFVYRTSSVQLRVAGLQPVLLQDRRVENVDLTSVVSGHLDYAKQMDAILKAVGIRTKPGWDEKGLLLAPGCLPSEEPRQAAAAASSGETPHQVGQTQGPISGDTSKLAMSTDPSQAQVPVGLDQSEGASLPAAASPERPPICSHGMDPNPLGCPDCACKTQGPSTGLD |  | no binding (condition: in RAB3GAP1-null cells) | binds
